# Source: PubChem BioAssay AID2546 (National Center for Advancing Translational Sciences (NCATS), 2010)
# The campaign covered roughly 310,000 compounds. About 11,000 (3.5%) were called active. The inconclusive results got no clear call from the source; some entries with a clear call stand among them for comparison. Calls follow the shape of the dose curve; as a rule, active = well fitted inhibition curve with a large enough effect; inconclusive = small, poorly fitted or top-dose-only effect, or effect the other way; inactive = flat fitted curve, though single readings scatter. No potency is given beside an inconclusive call; the fits are too rough.
# Assay: VP16 counterscreen qHTS for inhibitors of ROR gamma transcriptional activity;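 also: Gal4-VP16 expression switched on by copper sulfate through the metallothionein promoter; nearly all actives have a fitted effect of over 50% in size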
# Conditions: Drosophila S2 Gal4-VP16 UAS-luciferase, luminescence, 20 h; series mostly up to 53.6 µM
# Potency is read from the fitted curve at half-maximal effect; tags tell the direction and shape of the fitted curve.
row,SMILES,Potency
1,Cc1ccc(C(=O)CN2C(=O)c3ccccc3S2(=O)=O)cc1,"inconclusive [inhibitor, full curve]"
2,CCN(CC)CCOC(=O)c1ccc(NC(=O)CCCN2C(=O)/C(=C\c3cccs3)SC2=S)cc1,active: 11.2 µM
3,Cc1cc2cc(C#N)c(N3CCN(S(C)(=O)=O)CC3)nc2cc1C,"inconclusive [inhibitor, single point]"
4,CCOC(=O)COn1c(=O)c(-c2cc3ccccc3o2)[n+]([O-])c2ccccc21,"inconclusive [inhibitor, single point]"
5,COc1ccccc1CNS(=O)(=O)c1ccc2c(c1)CCCN2C(C)=O,inactive
6,COc1cccc(C(=O)/C=C/Nc2ccc(S(=O)(=O)Nc3cccc(C(C)=O)c3)cc2)c1,active: 10 µM
7,CCOc1ccc(NS(=O)(=O)c2ccc(NS(=O)(=O)c3ccc(SC)cc3)cc2)cc1,"inconclusive [inhibitor, single point]"
8,Cc1ccc(-c2ccc(=O)n(CC(=O)N3CCN(c4cc(Cl)ccc4C)CC3)n2)cc1,"inconclusive [inhibitor, single point]"
9,Cc1ccccc1NC(=S)C1=C(O)c2sccc2N(C)S1(=O)=O,"inconclusive [inhibitor, single point]"
10,COc1cc(NC(=O)Cn2c(-c3cncs3)nc3ccccc32)cc(OC)c1OC,"inconclusive [inhibitor, single point]"
11,Cc1ccc(-n2c(N)c(-c3nc4ccccc4n3C)sc2=S)cc1,"inconclusive [inhibitor, full curve]"
12,Cc1ccc(Cl)cc1NC(=O)c1ccc(Cn2cc(Cl)cn2)cc1,"inconclusive [activator, single point]"
13,Cc1ccccc1CSc1nccn1-c1ccccc1,active: 12.6 µM
14,O=C(NC(=S)Nc1ccccc1F)C1CCCCC1,active: 7.94 µM
15,COc1cc(C2C(C(=O)c3cc4ccccc4o3)=C(O)C(=O)N2c2cc(C)on2)cc(OC)c1OC (stereo unspecified),"inconclusive [inhibitor, single point]"
16,COc1ccc(C2NC(=O)C(C#N)=C(S)N2c2ccccc2)cc1OC (stereo unspecified),"inconclusive [inhibitor, single point]"
17,COC1C/C(=N\O)C2OC(c3ccccc3)OCC2O1 (stereo unspecified),inactive
18,Cn1sc(=O)n(Cc2ccccc2)c1=O,"inconclusive [inhibitor, single point]"
19,CCN1CCN(c2ccc(NC(=O)COc3ccc([N+](=O)[O-])cc3)cc2)CC1,inactive
20,COc1cc(/C=c2\s/c(=C\C(=O)C(C)(C)C)[nH]c2=O)cc(OC)c1OC,"inconclusive [inhibitor, single point]"
21,c1ccc2[nH]c(CSc3nc4ccccc4o3)nc2c1,"inconclusive [inhibitor, single point]"

row,SMILES,Potency
1,CCOc1ccc(-n2c(-c3ccc(Br)cc3)c[n+]3c2CCCCC3)cc1,active: 22.4 µM
2,CCC(C)NC(=O)c1cc(-c2ccc3c(c2)OCO3)on1 (stereo unspecified),"inconclusive [inhibitor, partial curve]"
3,COc1cc2c(cc1OC)C(c1cc([N+](=O)[O-])ccc1O)NCC2 (stereo unspecified),inactive
4,COc1ccc(C(CC(=O)N2CCOCC2)c2c(O)cc(OC)cc2OC)cc1 (stereo unspecified),inactive
5,C[C@@H](C(=O)NCc1c(F)cccc1Cl)N1C(=O)N2CCc3c([nH]c4ccccc34)[C@@]2(C)C1=O,inactive
6,COc1ccccc1-c1nnc(NC(=O)c2ccc(S(=O)(=O)N3CCOCC3)cc2)o1,active: 0.631 µM
7,N#Cc1ccc(C(=O)Nc2cc(S(=O)(=O)Nc3ccc(Cl)cc3)ccc2N2CCCCC2)cc1,"inconclusive [inhibitor, single point]"
8,COc1cc(/C=C2/SC(=S)N(CC(=O)NC(C)(C)C)C2=O)cc(OC)c1OC,"inconclusive [inhibitor, single point]"
9,Clc1ccc(-c2cc(-c3ccccn3)on2)c(Cl)c1,active: 7.08 µM
10,CN1c2ccccc2C(C)(C)C12C=Nc1c(cc(N3CCOCC3)c3ccccc13)O2 (stereo unspecified),"inconclusive [inhibitor, single point]"
11,N=c1c2c(-c3ccccc3)c(-c3ccccc3)oc2ncn1CCCN1CCOCC1,"inconclusive [inhibitor, single point]"
12,COc1ccc(-c2cc3nc(C)c(CCC(=O)N4CCN(c5ccccn5)CC4)c(C)n3n2)c(OC)c1,"inconclusive [activator, single point]"
13,COC(=O)C1=C(O)/C(=C\c2ccc(CNS(=O)(=O)c3ccc(Cl)cc3)o2)N=C1C,"inconclusive [inhibitor, partial curve, poor fit]"
14,Cc1ccc(S(=O)(=O)/C=C/C#N)cc1,active: 0.562 µM
15,CCOC(=O)c1c(-c2ccccc2)csc1NC(=O)CSc1nc(C)cc(C)n1,"inconclusive [inhibitor, single point]"
16,CC[C@@H]1O[C@]2(C=C[C@@H]1C)C[C@H]1C[C@H](CC=C(C)[C@@H](O[C@@H]3C[C@H](OC)[C@H](O[C@@H]4C[C@H](OC)[C@H](O)[C@H](C)O4)[C@H](C)O3)[C@@H](C)C=CC=C3CO[C@@H]4[C@@H](O)C(C)=C[C@@H](C(=O)O1)[C@]34O)O2,inactive
17,C=C1C(=O)OC2CC1C(OC(C)=O)CC(C)=CCCC(C)=CCC[C@@]2(C)O (stereo partly specified),"inconclusive [inhibitor, single point]"
18,O=C(NCC1COCCO1)c1cc(COc2ccc(F)cc2F)on1 (stereo unspecified),"inconclusive [inhibitor, single point]"
19,O=C(N/N=C/c1ccccn1)c1cc(-c2ccncc2)nc2ccccc12,"inconclusive [inhibitor, single point]"
20,COc1ccc(/C=N/NC(=O)c2ccc(OC)c(OC)c2)cc1COc1c(F)c(F)c(F)c(F)c1F,"inconclusive [inhibitor, single point]"
